Reference: the supplement of paper PMC11417369
The list shows a part of the results.

Tested on: PfHDP1 homeodomain (GST-tagged)
Experiment: gcPBM binding intensity (ln(normalized median fluorescence intensity)); higher = stronger DNA binding
Method in brief: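 Binding intensity is defined as the maximum Masliner-normalised natural-log median intensity across replicate spots for either probe orientation. It was measured on an Agilent 4 × 180k array of primer-extended double-stranded 36-bp intergenic genomic probes and negative controls, to which GST-tagged P. falciparum DNA-binding domains made in E. coli were applied for 1 h in 1× PBS with 1% milk, 0.2 mg/ml BSA, 0.5% salmon testes DNA and 0.03% Triton X-100. Detection was by Alexa488 anti-GST antibody and scanning at 488 nm.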

| Sequence | gcPBM binding intensity (ln) |
| --- | --- |
| AAAATTTTTAGTTATACACACAACATAGAAAATATT [CACACA_site328] | 6.55 |
| TTACATGTAAAAGGTACACACATTATGTATACAAAT [CACACA_site1117] | 6.79 |
| TTTTTTTTTTTTTTTTGTCCGTACTGCTTTGTGTTT [XGTACX_site3687] | 6 |
| ATGATAAACATGGATACACACATATAGATTGCATAT [CACACA_site6843] | 7.08 |
| TTATTAAATTCATAAGTGCATTTATGATTAATTTTT [GTGCAC_site9749] | 8.43 |
| ATTTCTCTATCGTAATGTACATAAAAAAGAAAAACA [XGTACX_site6374] | 6.63 |
| ATATATATTAACAATACACACGTGTATACCTTATTG [CACACA_site5258] | 6.92 |
| TTCATCTTAAAATTGGGTACATAACACAAAGTATAA [XGTACX_site1894] | 6.34 |
| CCTATAAATGCATTCACACATATATATTTATATTAT [CACACA_site6086] | 6.87 |
| TCTAATTACAAAAACATACACACAAAAAAAAAAAAA [CACACA_site3783] | 6.52 |
| ATGTACAAAATAAGCACACACAAAAAAAAAAAAAAT [CACACA_site2998] | 6.45 |
| TCAAAAATAAAGATCACACATATATATATATATATA [CACACA_site4381] | 9.54 |
| CTTAATTTAATGAAATGTACATATAAAAATATTATA [XGTACX_site3303] | 6.37 |
| TTTGATCGATGGATTTAACACACAAAAAAAAAAAAA [CACACA_site9279] | 6.32 |
| GTAAGAAACAGACACACACACATATATATATATATA [CACACA_site794] | 9.42 |
| AATAATTTTATCGGTACACACTGTATGCATAATATT [CACACA_site4364] | 7.02 |
| GAACAGTTTGTTTAGTGTACTTTTTTTTTTTTTTTT [XGTACX_site8881] | 6.46 |
| TTTATGACTTGAAAAAGTACACATATATTTATGCAA [XGTACX_site5451] | 6.31 |
| AATATAGAAATAAATATATCACATTTGTGTTTAAAC [XGTACX_negctrl_site68] | 6.15 |
| TACCAAATTTATTCTTGTACATATATATATATATAT [XGTACX_site4832] | 9.29 |
| TATATATATATACCTTGTACTTACATTCGCATATAA [XGTACX_site2466] | 9.08 |
| AAAAAAAAAAAAAAAGCACACACACCGATGTGTATA [CACACA_site8224] | 6.63 |

| Sequence | gcPBM binding intensity (ln) |
| --- | --- |
| CCATTACCATATAAAACACACAAACATACATACATA [CACACA_site5952] | 6.71 |
| GTATAATTATGTGCACGTACATATTTTATTATATAT [XGTACX_site8586] | 10.9 |
| ACATAAATATATGACACACACACATATTATATATAT [CACACA_site3065] | 7.1 |
| TTGTTTTCTTTTTCTTTTCTTTTTCTTTTTTCTTTT [GTGCAC_negctrl_site629] | 6.08 |
| TATATATATATAAAGACACACATCTATAGAATGTTA [CACACA_site2557] | 8.9 |
| TATTTATATTTATACACACACACAAAAAAAAAAAAA [CACACA_site6817] | 6.82 |
| ATATGTTCCGAAGGTTGTACACACATAGAAATATAC [XGTACX_site8227] | 7.1 |
| AAAATATATACAATATGTACATATATATATATATAT [XGTACX_site1898] | 9.44 |
| GTACGTTAGATATATACACACATACATAATAAAGAA [CACACA_site7327] | 7.14 |
| TTACCCATTCCCTTTACATGCAATTTGTATTAATAA [TGCATGCA_site412] | 7.42 |
| TTAATTCTACTTATTACACACATATTAAGCAAAAAT [CACACA_site4921] | 6.62 |
| ATATATATTTATAGGTGTACAAAATACTATTTTAGG [XGTACX_site8499] | 6.62 |
| AAAAGGAAAAATATCACACATATATATATATATATA [CACACA_site5586] | 9.51 |
| AATAAGTAACAAAATACACACATATAGGTAATTATA [CACACA_site6949] | 6.58 |
| ATTATTATACACAAATGTACATGTGAATTTTTTTTC [XGTACX_site6982] | 7.07 |
| TAAATATATAAATACACACACATACACAAAAAAAAA [CACACA_site5890] | 7.09 |
| TATACACCCTAAAATACACACACACCCACCCATATA [CACACA_site9380] | 7.31 |
| TTTTTTTTTCTTTCTTTCTTTTGTAAAAACCTCAAA [CACACA_negctrl_site723] | 6.01 |
| ATATGTATATATAAAAGTACGCGTAAAAAAAAAAAA [XGTACX_site5377] | 6.8 |
| TCTTTTTATATTTATTGTACATAAAAAATAAAACAT [XGTACX_site4073] | 6.56 |
| TATAAACCAATGAACACACAAACATATATATATATA [CACACA_site3168] | 9.26 |
| ATAAAATAATCTTATGCACACCAAAAATTTATATAA [CACACA_site8332] | 10.4 |

| Sequence | gcPBM binding intensity (ln) |
| --- | --- |
| ATATATCAAAAATGATGACATAAATATATTAATTTA [TGCATGCA_negctrl_site259] | 6.16 |
| TATCTGTATGTATGTACACACAAAAAATGGAATATA [CACACA_site5947] | 6.76 |
| TTTTTGTAAAATAAACGTACAAAACAATTGTTCATT [XGTACX_site6537] | 6.5 |
| TAATATATATATTTATGTACATATAAATTTTCTCCT [XGTACX_site4496] | 6.58 |
| TATTTTAAAACAAAAATATAATTTCATAAAAATATA [CACACA_negctrl_site394] | 5.88 |
| GCCTTCCTTCTAAATGCACACGGAAAGTATAAATGT [CACACA_site8797] | 10.1 |
| GAATGAATCAATGTTTGTACTCAACAAATTATAAGG [XGTACX_site5122] | 6.45 |
| TATATATAATACAGTATGCACTATTTTTATTAAAAA | 8.06 |
| CAATAATTTTTTAAATGTACTTTATTATAATTTAAT [XGTACX_site135] | 6.27 |
| TATTAATTCTTAAATTTTTTTTTTTAATTCCTAGGA [CACACA_negctrl_site879] | 5.86 |
| ACAACATTTCTCAAATGTACATAATATAATTTATAT [XGTACX_site3224] | 6.6 |
| TTTTCTTACATCTTATAAAAAAAAATATATATTATA [GTGCAC_negctrl_site118] | 6.2 |
| GTCTAACAACCAAACGCACACACACTAATAAAAAAA [CACACA_site8026] | 7.88 |
| TTATATACATAAAAATGTACTTTTTATAAAATATAT [XGTACX_site8281] | 6.15 |
| AAGTTAGTATTCTGCTGTACTTCTATATATAAGTGT [XGTACX_site7678] | 6.11 |
| AAAATAATATTTAATACACACATAATTTTAATATAA [CACACA_site4588] | 6.4 |
| TACTTATATTATTTTATTATTAAATTTAAAACGAAA [CACACA_negctrl_site736] | 6.41 |
| ACAATAAAGAAGTGTACACATATATCAATAAAAAAA [CACACA_site5228] | 7.05 |
| CAATCATGGGTTTACACACACATGCATGTGAAAATT [CACACA_site1349] | 6.49 |
| AAAAAAAAAAAAAAAAAAAAAAAAATATATAATTTA [CACACA_negctrl_site583] | 7.28 |
| AACCAAACAAATAAACGTACAAACATTACATATATT [XGTACX_site2265] | 6.42 |
| GATGATAATAAATTTATATATAATATTATCTTATGT [GTGCAC_negctrl_site672] | 6.43 |

| Sequence | gcPBM binding intensity (ln) |
| --- | --- |
| CATATTAAAAATTATTGTACATATTAATGAATATAA [XGTACX_site2734] | 6.11 |
| ATTTTTGCAGTAATTAAATAGACAAAATGAAAAAAA [CACACA_negctrl_site1537] | 6.75 |
| AAAAAAAAAAAAAGCACACATATAAATATGAATAAA [CACACA_site1393] | 6.26 |
| AAAAAAAAAAAAAACACACACATACACCCAAAAATG [CACACA_site4223] | 6.8 |
| ATATACACACAAAAACGTACACATATATATATGTAT [XGTACX_site2673] | 7.08 |
| GGTATAATAATATATAGTACACACAAAAATGGAAGT [XGTACX_site7058] | 7.5 |
| TAAAGAAAAAGAGAATGTACATGAGAAAAGTATACT [XGTACX_site7472] | 7.22 |
| AAAAAAGATAATTATGCACACACACCCACCCACCCA [CACACA_site8825] | 9.38 |
| AGAAAAAAAAAAAAATGTACAGACTTTTTCTTATAA [XGTACX_site6481] | 6.2 |
| ACACAAAAAAATATATATATATATATATATATGTTA [CACACA_negctrl_site55] | 7.18 |
| TTTTTATAAATACACATAAATATATATATATATATA [TGCATGCA_negctrl_site393] | 9.19 |
| ATGCATTATTAGAATACACACCATACGCATATTTAT [CACACA_site4319] | 7.09 |
| AAAAAAAAAAAAAAATGTACATTTTGAAAGGATATA [XGTACX_site8217] | 6.58 |
| TAATAATAAAAATAAACACACATATATCTGTATTTA [CACACA_site5572] | 6.12 |
| TATTTATAAACATACGCACACATTAAAATATATATA [CACACA_site6051] | 7.47 |
| ATATATATATATATAGTGCATAAAATAAGTTTCTAA | 9.54 |
| GGTGGAAACAATTACACACACACAAAAAAAAAAAAA [CACACA_site3208] | 6.4 |
| AATCACAACAGACACACACACAAAAAAAAAAAAAAA [CACACA_site1442] | 6.45 |
| TTAATATAATAGAAGTGTACACACATATTTATGTGT [XGTACX_site6672] | 6.38 |
| ATATGTTATATAAATATATATATATATATATATATA [TGCATGCA_negctrl_site594] | 9.41 |
| TCAAAATTGCTTTGTTGTACTAATAAAATTTATTAC [XGTACX_site1121] | 6.26 |
| TATATATACATACGTACACACAAATATTAAAATATA [CACACA_site1951] | 6.81 |
